Reference: ChEMBL document CHEMBL1201862, “PubChem BioAssay data set” (2004)
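Test compounds were applied to cells in 96-well plates for 48 hours at 5 doses. Abbreviation: GI50, concentration required for 50% inhibition of growth.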 The source made the active and inactive calls. Cut-off read from the data, not from the text of the source: active = GI50 up to about 1.1 µM and inactive = higher.

system: NCI-H322M; test: NCI tumour cell line growth inhibition, 48 h

| SMILES | GI50 |
| --- | --- |
| ON(CCc1ccncc1)Cc1ccccc1 | inactive: > 100 µM |
| O=S(=O)(c1ccccc1)N1CN2CN(C1)CN(S(=O)(=O)c1ccccc1)C2 | inactive: > 100 µM |
| CC1(C)COCN1COC1CCCCC1 | inactive: > 100 µM |
| Oc1ccccc1/C=N/N1C(=S)N(C23CC4CC(CC(C4)C2)C3)C(=N\c2ccccc2)/C1=N/c1ccccc1 | inactive: > 100 µM |
| CCCC(=O)OCC1OC2OC(C)(C)OC2C2OC(C)(C)OC12 (configuration not stated) | inactive: > 100 µM |
| NC1=NC(=O)C(CC(=O)Nc2ccc([N+](=O)[O-])cc2[N+](=O)[O-])S1 (configuration not stated) | inactive: > 100 µM |
| O=C(c1ccc(Cl)cc1Cl)N(C(=O)N1CCCCC1)c1ccccc1 | inactive: > 100 µM |
| C=C1C(=O)C=C[C@]2(C)CC[C@H]3C(=C)C(=O)O[C@@H]3[C@@H]12 | inactive: 17.1 µM |
| CC(C)(C)c1cc(C(C)(C)C)c2sc(=S)oc2c1O | inactive: 11.9 µM |
| c1ccc(SC(CCCCOC2CCCCO2)Sc2ccccc2)cc1 (configuration not stated) | inactive: > 100 µM |
| OC1c2c(ccc3c2CCC3)CC12Cc1ccccc1C2 (configuration not stated) | inactive: 16.9 µM |
| Cc1nc2ccc(C(F)(F)F)cc2nc1NCc1ccc(Cl)c(Cl)c1 | inactive: 15.9 µM |
| CC1=CC=CC(C)(C)CC1(O[Si](C)(C)C)C(F)(F)F (configuration not stated) | inactive: > 100 µM |
| Fc1cc(C2=C[C@H](c3ccc(Cl)cc3)NC(=S)N2)c(Cl)cc1Cl | inactive: 45.7 µM |
| N#Cc1cc2c(n(C3OC(CO)C(O)C(O)C3O)c1=S)CCCCC2 (configuration not stated) | inactive: > 100 µM |
| O=C1CCN(CCC(F)(F)C(F)(F)C(F)(F)C(F)(F)F)C(=S)N1 | inactive: > 100 µM |
| O=c1c(F)cn2c(=O)n1CCCCCCCn1c(=O)c(F)cn(c1=O)CCCCCCC2 | inactive: > 100 µM |
| CC(=O)OCCOCBr | inactive: > 100 µM |
| CCOP(=O)(OCC)OC1c2[nH]cc(C(=O)OCc3ccccc3)c2-c2cc(C(=O)OC)[nH]c2C1OC (configuration not stated) | inactive: 13.9 µM |

| SMILES | GI50 |
| --- | --- |
| Clc1cc2ccccc2c2ccccc12 | inactive: > 100 µM |
| O=C1c2ccccc2C2(O)Oc3cccc(O)c3C12O (configuration not stated) | inactive: > 100 µM |
| CN(C)c1ccc(C=C2C(=O)N(c3ccccc3)N(c3ccccc3)C2=O)cc1 | inactive: > 100 µM |
| C[C@]1(O)O[C@@H]2OCC[C@@H]2C2=C1C(=O)c1ccccc1C2=O | inactive: 17.9 µM |
| O=C(NC(Nc1ccc(F)cc1)(C(F)(F)F)C(F)(F)F)C(C(F)(F)F)C(F)(F)F | inactive: > 100 µM |
| Cc1[nH]nc2c1C(=O)C=C(N(CCO)c1ccccc1)C2=O | inactive: > 100 µM |
| CC1=C(c2ccccc2)CON(c2ccccc2)C1 | inactive: 43.6 µM |
| CC1=NC(=Cc2cccc(Cl)c2)C(=O)N1n1c(-c2ccccc2)nc2ccccc2c1=O | inactive: 39.2 µM |
| C(=N\NC1=NCCN1)/c1cccc2cc3ccncc3nc12 | inactive: 4.58 µM |
| Cn1c2c(c3ccccc31)C1C(=O)N(c3ccccc3)C(=O)C1CC2 (configuration not stated) | inactive: > 303 µM |
| O=C(NC1=C(Cl)C(=O)c2ccccc2C1=O)c1ccc(F)cc1 | inactive: 12.9 µM |
| O=C(O)C1C2CCC(O2)C1C(=O)NCc1cccnc1 (configuration not stated) | inactive: > 100 µM |
| COC(=O)Nc1nc2cc(S(=O)(=O)NC(CC(C)C)C(=O)OC)ccc2[nH]1 (configuration not stated) | inactive: 4.15 µM |
| CC(C)(CN1CCCCC1)C(=O)CC(SCCS(=O)(=O)O)c1ccc(Br)cc1 (configuration not stated) | inactive: 1.96 µM |
| O=C1OC(c2ccc(O)cc2)(c2ccc(O)cc2)c2ccc(Cl)c3cccc1c23.O=C1OC(c2ccc(O)cc2)(c2ccc(O)cc2)c2cccc3c(Cl)ccc1c23 | inactive: 4.98 µM |
| O=C1C2C3CCC(C2C(=O)N1CO)C1C2C(=O)N(CO)C(=O)C2C31 (configuration not stated) | inactive: > 100 µM |
| C/C(=N\NC(=O)C[n+]1ccccc1)c1sc(-c2nc(C)c(/C(C)=N/NC(=O)C[n+]3ccccc3)s2)nc1C | inactive: > 100 µM |
| CC(=O)OCCOc1cc2c([nH]c3ccccc32)c(C)c2cccc1-2 | inactive: 12.6 µM |
